Results as given in the supplement of paper PMC10126150.
Sequences with one replicate were seen in a single cluster, so their values are uncertain.

System: ATP
Assay: switch fluorescence ratio, 500 uM ATP over buffer (Cy3 cluster intensity, sum of 5 cycles each) (fold (ratio)); higher = stronger signal-on switching upon ATP binding; sequences stand for … in TCGTCGGCAGCGTCAGATGTGTATAAGAGACAGTTTTTTTTTTTTTTTTTTTTTTTTT…TC
Conditions: aptamer strand: ATP DNA aptamer (quencher-CACCTGGGGGAGTATTGCGGAGGAAGG + anchor), 100 nM annealed; ATP concentration: 500 uM; one replicate
Outline: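 Clusters with intensities outside 100-1000 RFU were excluded. The remaining Cy3-labelled switching-strand clusters on a modified Illumina MiSeq flow-cell had been annealed to 100 nM quencher-labelled ATP aptamer and imaged in selection buffer, then after 15 min with 500 uM ATP at 22 °C, for five cycles separated by NaOH stripping and re-annealing. The fluorescence ratio, averaged per switch-domain sequence, is each cluster's summed target-cycle Cy3 intensity over its summed buffer-cycle Cy3 intensity.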
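Also: ATP exposure 15 min at 22 °C before imaging.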

Sequence	switch fluorescence ratio
AAAAAAGTT	1.05
AAAAACCTAG	1.05
AAAAACTTTG	1.01
AAAAAGAGCT	1
AAAAAGATGG	0.98
AAAAAGGCGT	0.977
AAAAAGTAGT	0.99
AAAAATACGA	1.04
AAAAATTCGC	0.975
AAAACAAGAC	1.69
AAAACATAGT	0.977
AAAACATCTT	1.03
AAAACCATTG	0.997
AAAACCTAG	1.02
AAAACCTG	1.03
AAAACCTGTT	1.09
AAAACGACGT	1.02
AAAACGGCAT	1.12
AAAACGGTCA	1.06
AAAACTTGGA	1.05
AAAACTTTAA	0.981
AAAAGAATTG	1.04
AAAAGATAAT	0.991
AAAAGATCAG	1.04
AAAAGCCAGC	1.03
AAAAGCCCAC	1.02

Sequence	switch fluorescence ratio
AAAAGGAAAT	1.02
AAAAGGAAGG	0.99
AAAAGGACAT	1.03
AAAAGGTGGG	1.01
AAAAGTCCTT	1.07
AAAAGTGCAG	0.994
AAAAGTGTGG	1.01
AAAAGTTGG	1.04
AAAATAAGAT	0.965
AAAATATAGC	0.98
AAAATATGAA	1.02
AAAATATGTC	0.993
AAAATCAGTG	1
AAAATCCAAT	1.05
AAAATCCAGC	0.965
AAAATCTTCT	1.04
AAAATGTTAC	1.09
AAAATTATGC	1.03
AAACAAACCG	1.05
AAACAACCCG	1.14
AAACACTCAT	1.06
AAACAGAGGG	1.02
AAACAGATGG	0.976
AAACAGCA	1.04
AAACATTACT	1.24
AAACATTGGG	1.06

Sequence	switch fluorescence ratio
AAACCATTTG	0.997
AAACCCAGCA	1.13
AAACCCGATG	1.04
AAACCCTAGG	1.06
AAACCGAAAT	1.33
AAACCGACAG	1.16
AAACCGACTT	1.27
AAACCGTATG	1.05
AAACCTTTAG	1.03
AAACGATATC	1.05
AAACGATCTA	0.994
AAACGATGAG	1
AAACGATTTG	0.998
AAACGCAGC	1.25
AAACGCCCTA	1.02
AAACGCGGCG	0.972
AAACGGGAAA	1.07
AAACGGTGGC	1.07
AAACGTCCCA	1.01
AAACGTTACC	1.75
AAACGTTGTG	1
AAACTAGATA	0.996
AAACTCGCTG	1.06
AAACTGCCAG	1.05
AAACTTAAGG	1.01
AAAGAATAAG	1

Sequence	switch fluorescence ratio
AAAGAATCGG	0.963
AAAGAATTTA	0.97
AAAGACCTTT	1
AAAGACGATT	0.995
AAAGAGAAGC	1.03
AAAGAGACTA	1.02
AAAGAGTACG	1.02
AAAGATAGCA	0.992
AAAGATCTTA	0.957
AAAGATTAAC	0.995
AAAGCACATA	1.17
AAAGCGAACG	0.974
AAAGCGGGTT	1.07
AAAGCGTCAC	1.14
AAAGCTAATC	1.15
AAAGCTGGT	1.04
AAAGGACTCC	1.06
AAAGGAGGCC	1.06
AAAGGCATTG	1.01
AAAGGGAAAG	1.02
AAAGGGGAT	0.996
AAAGGGTACG	1.01
AAAGGTAAAG	1.01
AAAGGTAGAC	1.09
AAAGGTGAAT	1.04
AAAGGTGACC	1.01

Sequence	switch fluorescence ratio
AAAGGTTCTA	0.972
AAAGGTTTA	1.01
AAAGTACACC	1.47
AAAGTAGT	0.992
AAAGTCACCT	1.2
AAAGTCTATA	1.04
AAAGTGACTC	0.967
AAAGTGCAA	1.05
AAAGTGGAGC	0.949
AAAGTTAGGC	0.956
AAAGTTTTTA	0.97
AAATAAAGGC	1.01
AAATAAGAAT	1.01
AAATAATACA	0.966
AAATACTAG	1.04
AAATAGAGAA	0.988
AAATATTACG	0.979
AAATATTATT	1
AAATATTCTT	1.04
AAATCAATCA	0.982
AAATCAGGAC	1.05
AAATCAGGTC	1.01
AAATCAGTCG	1.03
AAATCCAAGC	1.09
AAATCCCACC	1.07
AAATCGTGCT	0.988

Sequence	switch fluorescence ratio
AAATCTAGGG	1.01
AAATGAGGTA	0.985
AAATGGGAAC	1
AAATGGGACA	1.04
AAATGGGTC	0.986
AAATGTACAT	1.04
AAATGTTACG	1.01
AAATTAAACC	1.06
AAATTAAAGT	0.944
AAATTACAAG	1.01
AAATTACCGA	1.11
AAATTAGCAC	1.02
AAATTCGACA	0.99
AAATTGAAGT	1.02
AAATTGGAGA	0.978
AAATTGTCAG	1.01
AAATTTCCTA	1
AAATTTTAAG	1.01
AACAACTATA	1.06
AACACCGTCG	1
AACACTGAAT	1.03
AACAGAGGG	0.984
AACAGATGCG	0.964
AACAGATGCT	0.99
AACAGGAGGC	0.93
AACAGGCGGA	1

Sequence	switch fluorescence ratio
AACAGGGCAG	1.06
AACAGTATGA	1.02
AACATAATC	1.04
AACATCGCAT	1.09
AACATTAGGG	1.01
AACATTCGC	1.11
AACATTGCAG	1.04
AACATTTCGA	1.08
AACCAAAGCT	1.27
AACCAACTAT	1.05
AACCAGGCGA	1.18
AACCAGTATG	0.962
AACCAGTGGT	1.04
AACCATTGAC	1.07
AACCCCTTCT	1.07
AACCCGGGGG	1.03
AACCCTATAA	1.11
AACCGTCCCC	2
AACCGTGAAG	1.03
AACCTAGG	0.989
AACCTCCTTA	1.12
AACCTTCCCG	1.88
AACCTTGGGT	1.02
AACCTTTGAC	1.24
AACGAATCGA	0.98
AACGACATGG	1.27

Sequence	switch fluorescence ratio
AACGACCGA	1.21
AACGAGCCCG	0.989
AACGAGTTGC	1.12
AACGATATGA	1.04
AACGATTCAA	1.03
AACGATTGGA	1
AACGCAAAAT	1.79
AACGCAAGTA	1.16
AACGCACAGC	1.45
AACGCCATC	1.27
AACGCCCAGC	1.12
AACGCCGCTG	1.09
AACGCGAGCA	0.977
AACGCGGCTT	0.971
AACGCTCGCG	0.976
AACGCTGTGC	1.46
AACGGAGTTT	0.979
AACGGATATT	0.947
AACGGATTAC	2.56
